Experimental data published in the supplement of paper PMC11417369.
The other results are listed elsewhere or left out.

system: PfHDP1 homeodomain (GST-tagged); assay: gcPBM binding intensity (ln(normalized median fluorescence intensity)); higher = stronger DNA binding
Outline: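 The binding buffer was 1× PBS containing 1% milk, 0.2 mg/ml BSA, 0.5% salmon testes DNA and 0.03% Triton X-100. In it, GST-tagged P. falciparum DNA-binding domains expressed in E. coli were applied for 1 h to an Agilent 4 × 180k array of primer-extended double-stranded 36-bp intergenic genomic probes plus negative controls. Binding intensity, read with Alexa488 anti-GST antibody and a 488 nm scan, is the highest Masliner-normalised natural-log median intensity across replicate spots of either probe orientation.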

Sequence | gcPBM binding intensity (ln)
GTGTATATTATTTTATCACACATGTACATATGTTAA [CACACA_site5473] | 6.47
AAAAAATAAAAAGATACACACATATGTATAATATAC [CACACA_site1496] | 6.83
AATAAAAAAATATGAAATTATGACATATAGCATTTG [TGCATGCA_negctrl_site160] | 6.09
AATTTGATAATATCATGTACATGAAAGAATTCATGA [XGTACX_site8463] | 6.27
GTTAAAAGAAAAATATGTACATAAAAAAATTAGAAA [XGTACX_site578] | 6.79
TTTTCAATTAAAAAAAAATTATATTTTATTATTACA [CACACA_negctrl_site142] | 5.65
AAGATGGTAAAGAATTGTACGCGCATATATATATTT [XGTACX_site3904] | 7.61
TATATATATATATGATGTACACATTTTATTATTTGT [XGTACX_site1147] | 9.27
CTCTTGTTTCCATATAGTACGTAATAATATATACAA [XGTACX_site2428] | 6.64
AAAAATATAAACAAACGTACGAAGTGATGATATATT [XGTACX_site2242] | 6.6
TATTATATTTTTATTTGTACGTAAAATTAAGTTATG [XGTACX_site2405] | 6.54
TTTTTTGTTAAGTTGGTGCAAACAATAGTTATTGAC | 10.7
GGAGCACCCAGACACACACACACATATATATATATA [CACACA_site336] | 9.25
TATATCTACTACACACGTACACAAAATAAGATACCT [XGTACX_site7886] | 6.85
AAAAAAAAAAAACACACACACACACCCATATATAAA [CACACA_site1170] | 6.79
ACATAAAATTATTATACATGCATATTTAATTTTTTC [TGCATGCA_site353] | 6.44
TGTAGTCTGGAGAAGAGTACATAGTATCTGGTAGCT [XGTACX_site2029] | 6.4
GAATTGTATTGGTACTGTACAATTAAATTAAAAAAA [XGTACX_site1891] | 6.36
TTTTTTTTTTTTACATGTACTTATTTTAAATATAAA [XGTACX_site805] | 6.84
TATATTTATTTAAAAACATGCATTTTTTTTTTCCGT [TGCATGCA_site44] | 6.5
ATTTTTTTGGTAATTTGTACATAATATATACATAAT [XGTACX_site3742] | 6.79
AAAATTAAAACCTACACACACATTTAAAAAAAAAAA [CACACA_site3068] | 6.61

Sequence | gcPBM binding intensity (ln)
TATATTATAGGTTGTGTACACATATTATATAGTACT [CACACA_site4583] | 6.9
ATATATTTATAGACTTGTACATATATATACGATATA [XGTACX_site8890] | 6.2
AAGGCATGACTATCTGCACACATAAAAATAAGAAAT [CACACA_site8180] | 7.7
AATTTTTTTTTTTTGTGTCCTCATAATTCTTCATTC [XGTACX_site5042] | 6.14
TAAAAAAAAATATAATGTACGTATAAATATATATTA [XGTACX_site5085] | 6.49
TAAACATAATAATATACACACATATATTGATATATA [CACACA_site2144] | 6.37
TTCCTGTTAATTACAACACACAATTTTTATTTTATG [CACACA_site779] | 6.91
TAATTAAATACATTAACACACACACTAATATATACA [CACACA_site8938] | 7.02
TAACTATTATAAAAATGTACAAATGAAAATATTTTT [XGTACX_site1438] | 6.88
AAAATAAAAATAAAAGCACACATAAATATATATATA [CACACA_site8409] | 8.55
TACCAAAAAAAAAAAAATAAAAATAAAAAAAAAAAT [CACACA_negctrl_site1714] | 6.27
TAAAAGTTTTTATACATACACACCTATAAATTAAGT [CACACA_site2446] | 6.69
CTTTATTATAAGATTACACACATGTCTTATAATTTA [CACACA_site5715] | 6.58
TTTAAAAAATTATATTCACACACATACACATATATA [CACACA_site8076] | 6.95
ATAAATCGATAAAATATATGCTACATGAATAAATAA [XGTACX_negctrl_site604] | 6.45
ATATTTTTATATAATGAACACACATATTATATCATT [CACACA_site8446] | 6.22
TAAAAGGATACATATACACACATATATATATATATA [CACACA_site2791] | 9.36
TTCTTCAACAAAAAAATAAAAATAAAATAATAAAAA [GTGCAC_negctrl_site619] | 6.66
ATACACATAACATATATATATATATATATATATATC [CACACA_negctrl_site278] | 7.51
ATCTTTCCTTTTGCATGTACATATGGAAATACTTTT [XGTACX_site6995] | 6.78
ATAATTAAGTTATGTGTGCACTGTTAAAAATAAATG | 9.94
TATATATATATAAACGCATGTAATTTATACACACAT [TGCATGCA_site946] | 8.95

Sequence | gcPBM binding intensity (ln)
TTTTTTATTTTTTACATATTTAGCTCATATTTATAT [GTGCAC_negctrl_site491] | 6.84
AATATAATATCTATAATATAAAAAAAACAAAAAAAA [CACACA_negctrl_site875] | 6.28
TTTTATGATATTTACACACAAACGTGAGATAGCTCA [CACACA_site2311] | 6.57
AAAATATGTTAATATTGTACTTAAATAAAAAAAATA [XGTACX_site7152] | 6.32
ATTCTTAAAATAAAATGTACGAAAAAAAAAAAAAAA [XGTACX_site1657] | 6.45
AGAATTATATACACAAGTACATAATGACATATATAT [XGTACX_site5617] | 6.69
TAGATGTATTTTTAAAGTACTTTTTAATATATAATC [XGTACX_site1431] | 5.85
TAAAAAATTATATTCACACACATACACATATATATA [CACACA_site545] | 6.82
TTACAATATAATAAATGTACATATAACAAATATATA [XGTACX_site2199] | 6.71
CGACTTTTAAAATATACACACATATAAATAAATATA [CACACA_site6523] | 6.55
TTTTTTTTTTTTTGTAGTACATACTATTTTATTAAT [XGTACX_site950] | 6.36
TTTCTTAAACCGTACAGTACACACCTTTATAATGTT [XGTACX_site434] | 6.94
TAAGCGTTTTTTAAAACACACATAAGAACTAAATGA [CACACA_site1670] | 6.41
TATTTTCCATGAGGTAGTACACATTAAAAAATCGTT [XGTACX_site6887] | 6.37
AAGGTTTTGGGTTTTAATTAATTTAATATGATTATA [XGTACX_negctrl_site147] | 6.56
TAATATTAAAAAGAGACACACAAAAATATTAAAAAA [CACACA_site3120] | 6.71
TTACACCTTAGGATCTGTACAAATATATGACAAATC [XGTACX_site4333] | 6.34
ATATTAAATATATACAGTACACATTACAATACAATA [XGTACX_site3221] | 6.65
CTTTGTAGTTGGTCCACACACATATCTGGAAGAATA [CACACA_site4834] | 6.36
TTTCAACTTTTGTCATGTACACATAATTTTATTGCA [XGTACX_site6701] | 6.87
ATTTATTTATCAAATATTATCTTAAAAAAAAAAGAA [CACACA_negctrl_site1345] | 6.28
TGTATAACCATAAATTGTACAGAAAAAAGTATAAAA [XGTACX_site1493] | 6.33

Sequence | gcPBM binding intensity (ln)
ATGTGTATATGTTAATGTACAAATTTTGAAAATGCC [XGTACX_site2685] | 7.02
TTAAAAAATATATACGTTGATATAATACAACTTGAC [CACACA_negctrl_site1551] | 6.28
TATATATGCATTAAAGTGTTTTTTTTTTTTTTTTTT [CACACA_negctrl_site1353] | 6.63
ATTTTTTTTTTTTATGGTACACACACGCGTATGGTT [XGTACX_site3888] | 6.52
AACAAAAGAAAAAAATATATATATTCGTCCTATTTT [CACACA_negctrl_site444] | 6.22
CATCTGGTATCTAATAGTACATATATATAATATCTT [XGTACX_site2774] | 6.46
ATGTATTACTTAAATATATGAAACATATTACTTTTA [CACACA_negctrl_site496] | 5.97
TCATATTCCAAAAAAAAAAAAAAAAAAAAAAAAATA [CACACA_negctrl_site1293] | 5.82
AATATATATATATTATGTACACATAGAAATATATTA [XGTACX_site3874] | 6.44
CTTTCAAAATTATTTATAGTATCTCATATTTTAGTA [XGTACX_negctrl_site72] | 6.03
ATCCTTTATAAATAAGTGCATATAAAAAATAATATT [GTGCAC_site9759] | 8.84
ACACATATGTATATATGTACTTATATATATATATAT [XGTACX_site8632] | 9.2
TTTATTAATAAAAAGGTGCAATCAGGAAAAATTATC [GTGCAC_site9626] | 8.47
ATAATAAATTCTACGCGTACAAAACCATGAACATTA [XGTACX_site7505] | 6.52
TTTTAGCTATTTTAATATAATGAAGCAAAAAATAAA [TGCATGCA_negctrl_site576] | 6.52
ACCTACATACATATGTGTACTTATTTGTATTCACTG [XGTACX_site7124] | 6.94
ATAATATATGAAAAAACGATTTTTTCATTTTAAATA [XGTACX_negctrl_site146] | 6.35
TTTATAAACAAATGAACACACAAACATATTTATATA [CACACA_site7478] | 6.67
CACACGTAAAAGTATAATATAAAAAAGGTATACACT [CACACA_negctrl_site127] | 6.56
TATTTAAAGATATATACACACATTTGATATTATTAT [CACACA_site6509] | 6.54
CATACATACAAACACACACACATATAAATACATACA [CACACA_site4625] | 6.85
AAAAAAAAAAAAAAAACACACATATCTGTATTTATA [CACACA_site5760] | 6.67
